# Assay results published in the supplement of paper PMC10037445.
# Several values for one entry are separate records, joined by “and”; a condition that tells them apart may be missing. Equal values may be shown once. Over roughly 2,900 compounds, “NF-kB SEAP reporter activity, fold change vs agonist alone” has its median near 0.99; the highest 2% begin near 2.6. The list shows a part of the results.
# Legend:
# RAW-Dual [1] = test: NF-kB SEAP reporter activity, fold change vs agonist alone; cytotoxicity flag (confluency mask): not cytotoxic; higher = enhanced NF-kB activity
# How it was run: (§1)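 Library stock was pin-tooled at 50 nL into 384-well plates of RAW-Dual macrophages (50,000 cells/well, DMEM), followed 1 h later by a PRR agonist, and the cells were kept at 37 °C, 5% CO2. Supernatant collected after 20 hours was read for IRF by QuantiLuc luminescence and for NF-κB by QuantiBlue absorbance at 620 nm. Reporter activity is fold change over agonist-alone wells, and a well counted as cytotoxic when its IncuCyte confluency was below 70% of agonist controls in both mask sets.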
# RAW-Dual [2] = test: NF-kB SEAP reporter activity, fold change vs agonist alone; higher = enhanced NF-kB activity
# How it was run: as §1
# RAW-Dual [3] = test: NF-kB SEAP reporter activity, fold change vs agonist alone; cytotoxicity flag (confluency mask): cytotoxic (confluency <70% of control); higher = enhanced NF-kB activity
# How it was run: as §1
# [4] = agonist: ODN 1826 (TLR9) 0.5 ug/mL
# [5] = agonist: Pam2CSK4 (TLR2/6) 0.1 ug/mL
# [6] = agonist: Pam3CSK4 (TLR2/1) 0.1 ug/mL
# [7] = library stock concentration (final ~1000-fold dilution): 10 mM, cytotoxicity flag (confluency mask): not cytotoxic, agonist: Imiquimod (TLR7) […]
# [8] = library stock concentration (final ~1000-fold dilution): 10 mM, cytotoxicity flag (confluency mask): not cytotoxic, agonist: MPLA (TLR4) […]
# [9] = library stock concentration (final ~1000-fold dilution): 2 mM, cytotoxicity flag (confluency mask): not cytotoxic, agonist: Imiquimod (TLR7) […]
# [10] = library stock concentration (final ~1000-fold dilution): 2 mM, cytotoxicity flag (confluency mask): not cytotoxic, agonist: MPLA (TLR4) […]
smiles,measurement,setting,value
COc1ccc2[nH]c(S(=O)Cc3ncc(C)c(OC)c3C)nc2n1 (centres undefined) (library stock concentration (final ~1000-fold dilution): 10 mM),NF-kB SEAP reporter activity,RAW-Dual [1]; agonist: LPS (TLR4) 0.1 ug/mL,1.09
same,NF-kB SEAP reporter activity,RAW-Dual [1]; [4],0.927
same,NF-kB SEAP reporter activity,RAW-Dual [1]; [5],1.04
same,NF-kB SEAP reporter activity,RAW-Dual [1]; [6],1.34
COc1ccc2[nH]c(S(=O)Cc3ncc(C)c(OC)c3C)nc2n1 (centres undefined),NF-kB SEAP reporter activity,RAW-Dual [2]; [7],0.965
same,NF-kB SEAP reporter activity,RAW-Dual [2]; [8],1.07
CS(=O)(=O)c1ccc(Oc2cc(F)cc(C#N)c2)c2c1C(O)C(F)(F)C2 (centres undefined) (library stock concentration (final ~1000-fold dilution): 10 mM),NF-kB SEAP reporter activity,RAW-Dual [1]; agonist: LPS (TLR4) 0.1 ug/mL,1.07
same,NF-kB SEAP reporter activity,RAW-Dual [1]; [4],1.35
same,NF-kB SEAP reporter activity,RAW-Dual [1]; [5],1.01
same,NF-kB SEAP reporter activity,RAW-Dual [1]; [6],1.2
CS(=O)(=O)c1ccc(Oc2cc(F)cc(C#N)c2)c2c1C(O)C(F)(F)C2 (centres undefined),NF-kB SEAP reporter activity,RAW-Dual [2]; [7],1.03
same,NF-kB SEAP reporter activity,RAW-Dual [2]; [8],1.16
O=C(Nc1cccc(Cl)c1)Nc1ncc(CCNc2ncnc3ccsc23)s1,NF-kB SEAP reporter activity,RAW-Dual [2]; [7],0.259
same,NF-kB SEAP reporter activity,RAW-Dual [2]; [8],0.504
O=C(Nc1cccc(Cl)c1)Nc1ncc(CCNc2ncnc3ccsc23)s1 (library stock concentration (final ~1000-fold dilution): 10 mM),NF-kB SEAP reporter activity,RAW-Dual [1]; agonist: LPS (TLR4) 0.1 ug/mL,0.769
same,NF-kB SEAP reporter activity,RAW-Dual [1]; [4],0.415
same,NF-kB SEAP reporter activity,RAW-Dual [1]; [5],0.172
same,NF-kB SEAP reporter activity,RAW-Dual [1]; [6],0.268
C=C(C)C1CCC2(C(=O)OC3OC(COC4OC(CO)C(OC5OC(C)C(O)C(O)C5O)C(O)C4O)C(O)C(O)C3O)CCC3(C)C(CCC4C5(C)CCC(OC6OCC(O)C(O)C6OC6OC(C)C(O)C(O)C6O)C(C)(CO)C5CCC43C)C12 (centres undefined) (library stock concentration (final ~1000-fold dilution): 2 mM),NF-kB SEAP reporter activity,RAW-Dual [1]; agonist: LPS (TLR4) 0.1 ug/mL,1
same,NF-kB SEAP reporter activity,RAW-Dual [1]; [4],1.09
same,NF-kB SEAP reporter activity,RAW-Dual [1]; [5],1.17
same,NF-kB SEAP reporter activity,RAW-Dual [1]; [6],1.16
C=C(C)C1CCC2(C(=O)OC3OC(COC4OC(CO)C(OC5OC(C)C(O)C(O)C5O)C(O)C4O)C(O)C(O)C3O)CCC3(C)C(CCC4C5(C)CCC(OC6OCC(O)C(O)C6OC6OC(C)C(O)C(O)C6O)C(C)(CO)C5CCC43C)C12 (centres undefined),NF-kB SEAP reporter activity,RAW-Dual [2]; [9],0.946
same,NF-kB SEAP reporter activity,RAW-Dual [2]; [10],1.07
Nc1ncnc2c1c(-c1cccc(OCc3ccccc3)c1)cn2C1CC(CN2CCCC2)C1 (centres undefined) (library stock concentration (final ~1000-fold dilution): 10 mM),NF-kB SEAP reporter activity,RAW-Dual [1]; agonist: LPS (TLR4) 0.1 ug/mL,0.239
same,NF-kB SEAP reporter activity,RAW-Dual [1]; [4],0.283
same,NF-kB SEAP reporter activity,RAW-Dual [1]; [5],0.401
same,NF-kB SEAP reporter activity,RAW-Dual [1]; [6],0.701
Nc1ncnc2c1c(-c1cccc(OCc3ccccc3)c1)cn2C1CC(CN2CCCC2)C1 (centres undefined),NF-kB SEAP reporter activity,RAW-Dual [2]; [7],1.13
same,NF-kB SEAP reporter activity,RAW-Dual [2]; [8],0.975
CNC(=O)CN1CCC(Oc2cc3c(Nc4cccc(Cl)c4F)ncnc3cc2OC)CC1,NF-kB SEAP reporter activity,RAW-Dual [2]; [7],0.727
same,NF-kB SEAP reporter activity,RAW-Dual [2]; [8],1.58
CNC(=O)CN1CCC(Oc2cc3c(Nc4cccc(Cl)c4F)ncnc3cc2OC)CC1 (library stock concentration (final ~1000-fold dilution): 10 mM),NF-kB SEAP reporter activity,RAW-Dual [1]; agonist: LPS (TLR4) 0.1 ug/mL,1.86
same,NF-kB SEAP reporter activity,RAW-Dual [1]; [4],0.866
same,NF-kB SEAP reporter activity,RAW-Dual [1]; [5],0.646
same,NF-kB SEAP reporter activity,RAW-Dual [1]; [6],1.14
Nc1nc(N)nc(-c2cc(Cl)ccc2Cl)n1,NF-kB SEAP reporter activity,RAW-Dual [2]; [9],0.858
same,NF-kB SEAP reporter activity,RAW-Dual [2]; [10],1.09
Nc1nc(N)nc(-c2cc(Cl)ccc2Cl)n1 (library stock concentration (final ~1000-fold dilution): 2 mM),NF-kB SEAP reporter activity,RAW-Dual [1]; agonist: LPS (TLR4) 0.1 ug/mL,1.41
same,NF-kB SEAP reporter activity,RAW-Dual [1]; [4],1.28
same,NF-kB SEAP reporter activity,RAW-Dual [1]; [5],1.21
same,NF-kB SEAP reporter activity,RAW-Dual [1]; [6],1.26
CCN1CCCC1CNC(=O)c1cc(S(=O)(=O)CC)c(N)cc1OC (centres undefined) (library stock concentration (final ~1000-fold dilution): 10 mM),NF-kB SEAP reporter activity,RAW-Dual [1]; agonist: LPS (TLR4) 0.1 ug/mL,1.02
same,NF-kB SEAP reporter activity,RAW-Dual [1]; [4],1.01
same,NF-kB SEAP reporter activity,RAW-Dual [1]; [5],1.05
same,NF-kB SEAP reporter activity,RAW-Dual [1]; [6],1.04
CCN1CCCC1CNC(=O)c1cc(S(=O)(=O)CC)c(N)cc1OC (centres undefined),NF-kB SEAP reporter activity,RAW-Dual [2]; [7],1.03
same,NF-kB SEAP reporter activity,RAW-Dual [2]; [8],1.06
COc1cc(N)c(Cl)cc1C(=O)NC1CCN(Cc2ccccc2)CC1,NF-kB SEAP reporter activity,RAW-Dual [2]; [7],1.28
same,NF-kB SEAP reporter activity,RAW-Dual [2]; [8],1.16
COc1cc(N)c(Cl)cc1C(=O)NC1CCN(Cc2ccccc2)CC1 (library stock concentration (final ~1000-fold dilution): 10 mM),NF-kB SEAP reporter activity,RAW-Dual [1]; agonist: LPS (TLR4) 0.1 ug/mL,0.993
same,NF-kB SEAP reporter activity,RAW-Dual [1]; [4],0.668
same,NF-kB SEAP reporter activity,RAW-Dual [1]; [5],0.963
same,NF-kB SEAP reporter activity,RAW-Dual [1]; [6],1.11
O=S(=O)(NCCN1CCNCC1)c1ccc(NC2CCCCC2)c(NCc2ccccc2)c1 (library stock concentration (final ~1000-fold dilution): 10 mM),NF-kB SEAP reporter activity,RAW-Dual [3]; agonist: LPS (TLR4) 0.1 ug/mL,1.57
same,NF-kB SEAP reporter activity,RAW-Dual [3]; [4],1.13
same,NF-kB SEAP reporter activity,RAW-Dual [3]; [5],1.04
same,NF-kB SEAP reporter activity,RAW-Dual [3]; [6],1.73
O=S(=O)(NCCN1CCNCC1)c1ccc(NC2CCCCC2)c(NCc2ccccc2)c1,NF-kB SEAP reporter activity,"RAW-Dual [2]; library stock concentration (final ~1000-fold dilution): 10 mM, cytotoxicity flag (confluency mask): cytotoxic (confluency <70% of control), agonist: Imiquimod (TLR7) […]",1.27
same,NF-kB SEAP reporter activity,"RAW-Dual [2]; library stock concentration (final ~1000-fold dilution): 10 mM, cytotoxicity flag (confluency mask): cytotoxic (confluency <70% of control), agonist: MPLA (TLR4) […]",2.03
O=C(Nc1cc(Cl)cc2c1[nH]c1cnccc12)c1cccnc1 (library stock concentration (final ~1000-fold dilution): 10 mM),NF-kB SEAP reporter activity,RAW-Dual [1]; agonist: LPS (TLR4) 0.1 ug/mL,0.856 and 0.725
same,NF-kB SEAP reporter activity,RAW-Dual [1]; [4],0.62 and 0.497
same,NF-kB SEAP reporter activity,RAW-Dual [1]; [5],0.406 and 0.309
same,NF-kB SEAP reporter activity,RAW-Dual [1]; [6],0.547 and 0.384
COc1cc(OC)c(C=CS(=O)(=O)Cc2ccc(OC)c(NCC(=O)O)c2)c(OC)c1,NF-kB SEAP reporter activity,RAW-Dual [2]; [7],2.64
same,NF-kB SEAP reporter activity,RAW-Dual [2]; [8],2.27
COc1cc(OC)c(C=CS(=O)(=O)Cc2ccc(OC)c(NCC(=O)O)c2)c(OC)c1 (library stock concentration (final ~1000-fold dilution): 10 mM),NF-kB SEAP reporter activity,RAW-Dual [1]; agonist: LPS (TLR4) 0.1 ug/mL,4.24
same,NF-kB SEAP reporter activity,RAW-Dual [1]; [4],3.24
same,NF-kB SEAP reporter activity,RAW-Dual [1]; [5],2.21
same,NF-kB SEAP reporter activity,RAW-Dual [1]; [6],2.56
COC1CC2CCC(C)C(O)(O2)C(=O)C(=O)N2CCCCC2C(=O)OC(C(C)CC2CCC(OC(=O)C(C)(CO)CO)C(OC)C2)CC(=O)C(C)C=C(C)C(O)C(OC)C(=O)C(C)CC(C)C=CC=CC=C1C (centres undefined) (library stock concentration (final ~1000-fold dilution): 10 mM),NF-kB SEAP reporter activity,RAW-Dual [1]; agonist: LPS (TLR4) 0.1 ug/mL,3.85
same,NF-kB SEAP reporter activity,RAW-Dual [1]; [4],3.11
same,NF-kB SEAP reporter activity,RAW-Dual [1]; [5],1.33
same,NF-kB SEAP reporter activity,RAW-Dual [1]; [6],2.09
